Data: the supplement of paper PMC11417369
Some of the results follow.

What follows are sequences tested on PfAP2-HC AP2 domain (GST-tagged) (assay: gcPBM binding intensity (ln(normalized median fluorescence intensity)); higher = stronger DNA binding).
In short: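 Binding intensity is the highest Masliner-normalised natural-log median intensity over replicate spots in either probe orientation. To obtain it, GST-tagged P. falciparum DNA-binding domains made in E. coli were incubated for 1 h on an Agilent 4 × 180k array of primer-extended double-stranded 36-bp intergenic genomic probes plus negative controls. Detection used Alexa488 anti-GST antibody with scanning at 488 nm.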

| Sequence | gcPBM binding intensity (ln) |
| --- | --- |
| ATATTATATATATACACACACACATGCATGCACATA [CACACA_site7917] | 10.3 |
| TAAAATTTGCGATGCACACAGAATAGCTAATATGAC [CACACA_site2995] | 10 |
| TATTTTCTCGTTTGCATGCACCTTATTTTATGTGGT [GTGCAC_site9470] | 10.1 |
| AAATTCTGCATCGAGGTGCGCCATAAAAATTGTGGT | 9.55 |
| TACTAAAACCCATACACACACATATTTATAGTACCA [CACACA_site7484] | 10.6 |
| TATACAATATATATAACACACATATTTATATAAAAT [CACACA_site5061] | 9.81 |
| AAAATACCATTTGAAACACACAAAAAAAAAAAAAAT [CACACA_site2981] | 10.1 |
| CAGTTGGAAGGAAAGTGTACATAAAAAAAAATATAA [XGTACX_site8784] | 9.58 |
| AACATAAAAATTGAAGCACACACACTAATGAAATAC [CACACA_site8287] | 10.6 |
| ACAAATCTATAAGAGTGTACGAACAGTAAAGGAATT [XGTACX_site2070] | 9.96 |
| ATAAAAATTAAAAGGAGTACTTAAATATTAAGATGG [XGTACX_site4815] | 9.69 |
| TTTAAAAATATATATTGTACATATATATATCTATGA [XGTACX_site3556] | 9.4 |
| TACTATTTAAAATTTGAACACACATTATTTATTTTA [CACACA_site9020] | 9.7 |
| AAAAAAAAAAAAAAGACACACAATGTGAAATAATAA [CACACA_site804] | 9.98 |
| AATATATTTCGAGATACACACATATATAAAAAAAAA [CACACA_site3398] | 9.77 |
| AATAGAACAAATAAAACACACACATATATATATATA [CACACA_site8893] | 10.1 |
| AAAATAAAATAAAATACACACATACATACATACAAA [CACACA_site5366] | 10.2 |
| CAATAAAGAGGGAATTGTACTTTAAATATCCCTCTT [XGTACX_site1991] | 9.5 |
| ATATATCACAATAAAATTTATAGAATTTTAAATAAG [TGCATGCA_negctrl_site437] | 9.29 |

| Sequence | gcPBM binding intensity (ln) |
| --- | --- |
| GTTCAATCGGGTGTTACTTCAAACAAGGAACAACAA [TGCATGCA_negctrl_site471] | 9.56 |
| ATAGTAAATATAAAAAGTACTGATTCTTAAATTGTT [XGTACX_site5972] | 9.7 |
| TATTTTATTGTTGTTATACACACCATATAAAATATT [CACACA_site1630] | 9.77 |
| ACTTGACACCAACACACACACATATATAAAAAAAAA [CACACA_site756] | 11 |
| TTTTAAAGAAAATATTTTATCATTATTTTTTGTACT [CACACA_negctrl_site1648] | 9.57 |
| TTTTAAAATTTTTTTTTTTTTTTTTTATGAACAAGT [GTGCAC_negctrl_site124] | 9.22 |
| AATATTTTAAATATTGCATGCAATGAAAAATGTAAA [TGCATGCA_site139] | 9.64 |
| TCTTATTTTTTTATATATACAAAGTTTTATATATAT [GTGCAC_negctrl_site314] | 9.68 |
| ATATATTGATATATGTGTACATAGCTTATTTCATTT [XGTACX_site1800] | 9.74 |
| ATATAATATATGTAAGTGCGCTTATAAATAAAACGA [GTGCAC_site9841] | 10 |
| TATATAGAAAACAAGGCATGCAAATAACAAATTGTG [TGCATGCA_site473] | 10.2 |
| AACAAAAATGAAAAAACACACATAACATATATAAAT [CACACA_site740] | 10.1 |
| AAAAAAAAAAAAAAAGTGCACTGAAAATATATTGAA [GTGCAC_site9395] | 9.76 |
| TTTTTAATTATTTATATAACGATAATCCTTACATAA [TGCATGCA_negctrl_site180] | 9.22 |
| ATAATATAAATAAAAACACACACAATCGTACATATA [CACACA_site9223] | 10.2 |
| ATAAATATATATTTACGTACATATTATATATATATA [XGTACX_site6172] | 9.61 |
| AAAAAAATTTCACATTGTACTTTAATAATATACTAC [XGTACX_site7264] | 9.64 |
| ACATATAAATTGTGTACACATATATATATATTTTTT [CACACA_site5946] | 9.84 |
| GAATGCATGTAAATATGTACATATATTTAAAAATTT [XGTACX_site6032] | 9.63 |

| Sequence | gcPBM binding intensity (ln) |
| --- | --- |
| TGTTAAAAGGTTAAATTAAAATAACCTCCGGAAATT [GTGCAC_negctrl_site236] | 9.4 |
| TTTATATGTATACAAACATATAAATATAAATGTATT [TGCATGCA_negctrl_site346] | 9.59 |
| TGTTCTATGATTTGTACACACTTTTTTTTAAAATGC [CACACA_site5558] | 9.78 |
| TATATATACATATACACACACACACCGATATATATA [CACACA_site8706] | 10.5 |
| GTTTTGTACATATTCTCACACATATAAAAATACCCA [CACACA_site4446] | 9.68 |
| TTCATAATAAAAAGGTGTACATATATATATATATAT [XGTACX_site2829] | 10.1 |
| AAGCATTTAATGTTTTATATAACATGTATTTTTTAT [CACACA_negctrl_site673] | 9.57 |
| TATCGAGCCATTTTTACATGCAATTATACATAATTT [TGCATGCA_site987] | 9.71 |
| TTCAAATAATTTAAATGTACGTTGCTTTATTAAAAG [XGTACX_site3674] | 9.19 |
| CATGTATACTATAATACACACTATAAAATATACACC [CACACA_site7121] | 9.86 |
| TAAAATGAATATAGGTGTACTTAAAAAAAAGTAAAA [XGTACX_site4613] | 9.61 |
| TAAATTCTTTATAATCGTACATAAATAGAAAAATAA [XGTACX_site601] | 9.4 |
| TAAAAGAAATAATATACACACATATATAAAAATAAA [CACACA_site1329] | 9.92 |
| AAATATATGTTATATGTGCACTTTTTTTTTTTTTTT [GTGCAC_site9667] | 9.58 |
| CTTACTTACTTACTCACACACATATACAAAGAAAAA [CACACA_site3347] | 10 |
| TTTTACTAAATATATACACACATTATACATATATAT [CACACA_site9081] | 10.2 |
| ATGATGAAAATAGAAATACACACTAAAAAATAAAAT [CACACA_site1136] | 9.9 |
| ATAAATAATAAAAAATGTACACATATAAATATAAAG [XGTACX_site727] | 10.2 |
